In paper PMC2933890:
These are yes or no findings as the source states them, for the method shown. For some assays here: Binding seen in cells or lysates may run through a third protein. Some results given as binding are weak or reduced against the parent protein; the word gives no strength. Tags and fused reporters may be left off the sequences shown. Values belong to the molecule of their own block, whether it stands above or below them.

Sequences of proteins named here, by UniProt entry; tags and fusion partners are left off.
UniProt P54274: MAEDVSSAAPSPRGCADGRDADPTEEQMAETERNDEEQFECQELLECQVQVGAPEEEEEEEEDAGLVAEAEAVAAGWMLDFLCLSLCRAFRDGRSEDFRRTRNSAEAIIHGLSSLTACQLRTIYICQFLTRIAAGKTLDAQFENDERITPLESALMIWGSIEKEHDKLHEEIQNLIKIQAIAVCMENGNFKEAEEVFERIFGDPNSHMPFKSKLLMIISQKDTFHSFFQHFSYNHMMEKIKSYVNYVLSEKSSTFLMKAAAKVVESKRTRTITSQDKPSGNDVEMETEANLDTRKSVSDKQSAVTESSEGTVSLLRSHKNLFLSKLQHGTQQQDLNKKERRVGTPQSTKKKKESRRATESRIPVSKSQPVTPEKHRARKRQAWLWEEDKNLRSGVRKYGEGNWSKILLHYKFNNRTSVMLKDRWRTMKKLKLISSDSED
UniProt Q15554: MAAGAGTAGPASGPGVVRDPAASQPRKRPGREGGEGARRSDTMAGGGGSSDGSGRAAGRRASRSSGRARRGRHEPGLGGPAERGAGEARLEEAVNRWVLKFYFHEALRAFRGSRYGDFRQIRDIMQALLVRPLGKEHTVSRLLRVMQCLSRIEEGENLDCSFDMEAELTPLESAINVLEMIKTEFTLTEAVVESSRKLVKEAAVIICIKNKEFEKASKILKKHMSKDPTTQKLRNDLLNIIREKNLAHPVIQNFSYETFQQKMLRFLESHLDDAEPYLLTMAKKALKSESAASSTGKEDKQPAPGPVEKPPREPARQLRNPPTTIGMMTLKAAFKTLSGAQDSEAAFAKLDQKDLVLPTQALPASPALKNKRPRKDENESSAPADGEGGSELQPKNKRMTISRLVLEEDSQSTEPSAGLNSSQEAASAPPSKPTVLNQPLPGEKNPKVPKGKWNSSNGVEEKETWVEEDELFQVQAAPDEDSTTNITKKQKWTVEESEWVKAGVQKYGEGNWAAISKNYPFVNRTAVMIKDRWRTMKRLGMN

Experiments:
LexA-POT1∆C (human) = biological target: T1, LexA-POT1∆C (human) (UniProt Q9NUX5); test: two-hybrid; yeast strain L40, LexA DNA binding domain baits, GAL4 activation domain preys, HIS3 and LacZ reporters (His phenotype, patch LacZ, liquid β-Gal assays)
T1 sequence: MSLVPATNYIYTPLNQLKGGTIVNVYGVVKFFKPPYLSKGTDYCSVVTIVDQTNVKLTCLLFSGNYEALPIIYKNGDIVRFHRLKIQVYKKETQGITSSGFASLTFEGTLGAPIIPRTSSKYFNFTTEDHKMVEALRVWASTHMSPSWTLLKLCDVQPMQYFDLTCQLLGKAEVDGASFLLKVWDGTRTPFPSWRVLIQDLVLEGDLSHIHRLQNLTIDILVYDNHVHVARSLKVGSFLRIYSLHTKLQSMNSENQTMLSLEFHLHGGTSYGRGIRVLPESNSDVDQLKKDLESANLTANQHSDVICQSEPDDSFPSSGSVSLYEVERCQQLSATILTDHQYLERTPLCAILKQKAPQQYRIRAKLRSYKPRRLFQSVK

LexA-TRF1 = LexA-TRF1 (UniProt P54274); test: as above
[1] = biological target: T2, LexA-POT1 (full-length POT1) (human) (UniProt Q9NUX5); test: as above
T2 sequence: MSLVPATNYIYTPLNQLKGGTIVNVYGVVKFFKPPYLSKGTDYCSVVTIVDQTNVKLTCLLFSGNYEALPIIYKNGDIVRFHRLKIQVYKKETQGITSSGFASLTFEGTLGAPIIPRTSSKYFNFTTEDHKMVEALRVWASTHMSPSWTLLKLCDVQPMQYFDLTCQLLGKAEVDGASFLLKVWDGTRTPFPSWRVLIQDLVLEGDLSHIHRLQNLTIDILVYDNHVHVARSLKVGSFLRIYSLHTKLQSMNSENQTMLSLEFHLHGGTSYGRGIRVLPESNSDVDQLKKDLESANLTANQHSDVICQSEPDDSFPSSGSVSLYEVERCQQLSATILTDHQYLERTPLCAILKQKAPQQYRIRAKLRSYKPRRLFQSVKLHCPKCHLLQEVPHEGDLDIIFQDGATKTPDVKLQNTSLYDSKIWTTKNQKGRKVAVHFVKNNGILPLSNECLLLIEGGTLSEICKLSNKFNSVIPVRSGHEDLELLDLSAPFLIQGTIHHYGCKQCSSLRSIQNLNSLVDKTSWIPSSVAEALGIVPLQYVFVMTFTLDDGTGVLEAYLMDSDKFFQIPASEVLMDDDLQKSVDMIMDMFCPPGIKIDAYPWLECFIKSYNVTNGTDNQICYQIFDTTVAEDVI

[2] = biological target: T3, TIN2 (endogenous) (human (endogenous in HTC75)) (UniProt Q9BSI4); test: co-IP; lysates of HTC75 cells stably expressing MYC-TRIP6 or MYC-LPP; immunoprecipitation with antibodies to shelterin components, blot probed with 9E10 (anti-MYC)
T3 sequence: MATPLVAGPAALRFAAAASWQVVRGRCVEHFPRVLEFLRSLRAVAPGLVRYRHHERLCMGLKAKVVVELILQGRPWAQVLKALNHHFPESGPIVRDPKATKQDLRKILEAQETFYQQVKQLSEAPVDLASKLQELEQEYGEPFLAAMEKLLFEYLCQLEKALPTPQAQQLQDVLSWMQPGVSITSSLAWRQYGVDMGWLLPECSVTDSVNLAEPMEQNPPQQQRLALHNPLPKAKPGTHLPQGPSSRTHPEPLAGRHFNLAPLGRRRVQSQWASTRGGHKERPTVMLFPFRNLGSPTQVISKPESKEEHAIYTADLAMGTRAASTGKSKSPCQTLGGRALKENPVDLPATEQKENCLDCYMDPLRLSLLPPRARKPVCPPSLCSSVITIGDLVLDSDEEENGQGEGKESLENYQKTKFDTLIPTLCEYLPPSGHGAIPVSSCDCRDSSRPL

[3] = biological target: TRF2 (endogenous) (human (endogenous in HTC75)) (UniProt Q15554); test: as above
[4] = biological target: T4, POT1 (endogenous) (human (endogenous in HTC75)) (UniProt Q9NUX5); test: as above
T4 sequence: T2 sequence

[5] = biological target: TRF1 (endogenous) (human (endogenous in HTC75)) (UniProt P54274); test: as above
[6] = biological target: T5, FLAG-TRIP6 (full-length TRIP6) (human) (UniProt Q15654); test: co-IP; lysates of transiently co-transfected 293T cells; immunoprecipitation with M2 (anti-FLAG) or 9E10 (anti-MYC), blot probed with 9E10
T5 sequence: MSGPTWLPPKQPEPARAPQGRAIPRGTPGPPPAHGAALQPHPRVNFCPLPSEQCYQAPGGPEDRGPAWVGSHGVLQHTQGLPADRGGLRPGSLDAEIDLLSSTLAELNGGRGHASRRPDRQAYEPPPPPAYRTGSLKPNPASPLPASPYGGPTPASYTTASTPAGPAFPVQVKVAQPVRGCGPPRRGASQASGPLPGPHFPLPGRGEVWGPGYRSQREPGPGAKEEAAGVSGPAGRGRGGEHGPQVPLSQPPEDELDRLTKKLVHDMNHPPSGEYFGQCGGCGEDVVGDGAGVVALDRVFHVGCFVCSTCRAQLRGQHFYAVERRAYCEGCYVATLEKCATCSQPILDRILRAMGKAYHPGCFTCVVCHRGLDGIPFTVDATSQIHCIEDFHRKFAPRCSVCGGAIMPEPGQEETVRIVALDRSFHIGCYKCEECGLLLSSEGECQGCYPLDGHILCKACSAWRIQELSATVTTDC

[7] = biological target: TRF2 (endogenous) (human (endogenous in HTC75)) (UniProt Q15554); test: co-IP; data not shown; coprecipitation of POT1 or TRF2 with wild-type TRIP6 or TRIP6-NES
[8] = biological target: T4, POT1 (endogenous) (human (endogenous in HTC75)); test: as above

B2: MYC-LPP (full-length LPP) (protein, UniProt Q93052 1-612)
chain: MSHPSWLPPKSTGEPLGHVPARMETTHSFGNPSISVSTQQPPKKFAPVVAPKPKYNPYKQPGGEGDFLPPPPPPLDDSSALPSISGNFPPPPPLDEEAFKVQGNPGGKTLEERRSSLDAEIDSLTSILADLECSSPYKPRPPQSSTGSTASPPVSTPVTGHKRMVIPNQPPLTATKKSTLKPQPAPQAGPIPVAPIGTLKPQPQPVPASYTTASTSSRPTFNVQVKSAQPSPHYMAAPSSGQIYGSGPQGYNTQPVPVSGQCPPPSTRGGMDYAYIPPPGLQPEPGYGYAPNQGRYYEGYYAAGPGYGGRNDSDPTYGQQGHPNTWKREPGYTPPGAGNQNPPGMYPVTGPKKTYITDPVSAPCAPPLQPKGGHSGQLGPSSVAPSFRPEDELEHLTKKMLYDMENPPADEYFGRCARCGENVVGEGTGCTAMDQVFHVDCFTCIICNNKLRGQPFYAVEKKAYCEPCYINTLEQCNVCSKPIMERILRATGKAYHPHCFTCVMCHRSLDGIPFTVDAGGLIHCIEDFHKKFAPRCSVCKEPIMPAPGQEETVRIVALDRDFHVHCYRCEDCGGLLSEGDNQGCYPLDGHILCKTCNSARIRVLTAKASTDL
binding [2]: binds
binding [3]: binds
binding [4]: binds
binding [5]: binds

B3: MYC-POT1 (full-length POT1) (protein, UniProt Q9NUX5 1-634)
chain: T2 sequence
binding [6]: binds

B4: MYC-TRIP6 (full-length TRIP6) (protein, UniProt Q15654 1-476)
chain: T5 sequence
binding [7]: binds
binding [8]: binds weakly
binding [2]: binds
binding [3]: binds
binding [4]: binds weakly

The next lines start with the values.

binding (LexA-POT1∆C (human)): no binding
Molecule: TRF1-GAD (from UniProt P54274 1-439)

binding (LexA-TRF1): no binding
binding (LexA-POT1∆C (human)): binds
binding [1]: binds
B1: TRIP6 two-hybrid library clone (three C-terminal LIM domains) fused to the GAL4 activation domain (domain or fragment, UniProt Q15654 218-476)
chain: EPGPGAKEEAAGVSGPAGRGRGGEHGPQVPLSQPPEDELDRLTKKLVHDMNHPPSGEYFGQCGGCGEDVVGDGAGVVALDRVFHVGCFVCSTCRAQLRGQHFYAVERRAYCEGCYVATLEKCATCSQPILDRILRAMGKAYHPGCFTCVVCHRGLDGIPFTVDATSQIHCIEDFHRKFAPRCSVCGGAIMPEPGQEETVRIVALDRSFHIGCYKCEECGLLLSSEGECQGCYPLDGHILCKACSAWRIQELSATVTTDC
